Assay results: the RNAGym collection of RNA variant scans (doi:10.1093/nar/gkz1192)
The source gives no read counts; variants with many changes may rest on few reads.

B1: CPEB3 Ribozyme (parent)
chain: UAACAGGGGGCCACAGCAGAAGCGUUCACGUCGCAGCCCCUGUCAGAUUCUGGUGAAUCUGCGAAUUCUGCUGUAUAUCUC

Variants of: B1
Assay: self-cleavage, relative activity (ratio to wild type); higher = more cleavage; in vitro, sequencing
Procedure, shortened: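 Libraries of CPEB3 self-cleaving ribozyme mutants came from rounds of error-prone PCR and carried barcodes, which DNA sequencing matched to variants. In vitro transcription used T7 RNA polymerase at 37°C for 5 hours, with a further 15 min in DNase I before EDTA stopped the reaction; the ribozymes cleaved during both steps. The RNA was reverse transcribed with template switching and sequenced on Illumina. Relative activity is the cleaved/total read fraction of a variant divided by that of the unmutated ribozyme, averaged over three batches with at least 5 reads.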

Row | Variant | self-cleavage
1 | UAACAGGGGGCCUCAGCAGAAGCGUUCACGUCGCGGCCCCUGUCAGAUUCUGGUGAAUCUGCGAAUCCUGCCGUAUAUCCC | 0.58
2 | UAACAGGGGGCCUCAGCAGAAGCGUUCACGUCGCGGCCCCUGUCAGAUUCUGGUGAAUCUGCGAAUUCUGCUGUACAUCUC | 1.26
3 | UAACAGGGGGCCUCAGCAGAAGCGUUCACGUCGCGGCCCCUGUCAGAUUCUGGUGAAUCUGCGAAUUCUGCUGUAUAACUC | 1.46
4 | UAACAGGGGGCCUCAGCAGAAGCGUUCACGUCGCGGCCCCUGUCAGAUUCUGGUGAAUCUGCGAAUUCUGCUGUAUACCUC | 1.29
5 | UAACAGGGGGCCUCAGCAGAAGCGUUCACGUCGCUGCCCCUGUCAGAUUCUGGUGAAUCUGCGAGUUCUGCUGUAUAUCUC | 0.43
6 | UAACAGGGGGCCUCAGCAGAAGCGUUCACGUCGCUGCCCCCGUCGGAUUCUGGUGAAUCAGCGAAUUCUGCCGUAUAUCUC | 0.21
7 | UAACAGGGGGCCUCAGCAGAAGCGUUCACGUCGCUGCCCCUGUCAGACUCUGGUGAAUCUGCGAAUUCUGCUGUAUAUCUC | 0.54
8 | UAACAGGGGGCCUCAGCAGAAGCGUUCACGUCGCUGCCCCUGUCAGAUUCUGGUGAACCUGCGAAUUCCGCUGUAUAUCUG | 0.16
9 | UAACAGGGGGCCUCAGCAGAAGCGUUCACGUCGCAGCCCCUGUCCGAUACUGGUGAAUCUGCGAAUUCUGCUGUAUAUCUC | 0.03
10 | UAACAGGGGGCCUCAGCAGAAGCGUUCACGUCGCAGCCCCUGUCCGAUUCAGGUGAAUCUGCGAAUUCUGCUGUAUAUCUC | 0.34
11 | UAACAGGGGGCCUCAGCAGAAGCGUUCACGUCGCAGCCCCUGUCCGAUUCUGGUGAAUCUGCGAAAUCUGCUGUAUAUCUC | 0.17
12 | UAACAGGGGGCCUCAGCAGAAGCGUUCACGUCGCAGCCCCUGUCGGAUUCUGGUGGAUCUGCGAAUUCUGCUGUAUAUCUC | 0.83
13 | UAACAGGGGGCCUCAGCAGAAGCGUUCACGUCGCAGCCCCUGUCGGAUUCUGGUGGAUCUGCGAGUUCUGCUGUAUAUCUC | 0.16
14 | UAACAGGGGGCCUCAGCAGAAGCGUUCACGUCGCAGCCCCUGUCGGAUUCUGGUGAAUCUGCGAAUUCUGCUGUUUAUCUC | 1.02
15 | UAACAGGGGGCCUCAGCAGAAGCGUUCACGUCGCAGCCCCUGUCGGAUUCUGGUGAAUCUGCGAAUUCUGCUGUAUAUCUU | 1.09
16 | UAACAGGGGGCCUCAGCAGAAGCGUUCACGUCGCAGCCCCUGUCGGAAUCUGGUGAAUCUGCGAAUUCUGCUGUAUAUCUC | 0.19
17 | UAACAGGGGGCCUCAGCAGAAGCGUUCACGUCGCAGCCCCUGUCGGAUUCUGGCGAGUCUGCGAAUACUGCUGUAUAUCUC | 0.21

Row | Variant | self-cleavage
18 | UAACAGGGGGCCUCAGCAGAAGCGUUCACGUCGCAGCCCCUGUCGGAUUCUGGUGAAUCUGCGAAUUCUGCAGUAUAUCAC | 0.57
19 | UAACAGGGGGCCUCAGCAGAAGCGUUCACGUCGCAGCCCCUGUCUGAUUCUGGUGAAUCUGCGAAUUCUGCAGUACACCUC | 0.29
20 | UAACAGGGGGCCUCAGCAGAAGCGUUCACGUCGCAGCCCCUGUCAGGUUCUGGUGAAUCUGCGGAUUCUGCCGUAUAUCCC | 0.47
21 | UAACAGGGGGCCUCAGCAGAAGCGUUCACGUCGCAGCCCCUGUCAGGUUCUGGUGAAUCUGUGAAUUCUGCUGUACUUCUC | 0.3
22 | UAACAGGGGGCCUCAGCAGAAGCGUUCACGUCGCAGCCCCUGUCAGGAUCUGGUGAAUCUGCGAAUUCUGCUGUAUAUCUC | 0.17
23 | UAACAGGGGGCCUCAGCAGAAGCGUUCACGUCGCAGCCCCUGUCAGGUUCUGGUGAAUCUGCGAAUUCUGCAGUAUAUCUC | 0.46
24 | UAACAGGGGGCCUCAGCAGAAGCGUUCACGUCGCAGCCCCUGUCAGGUUCUGGUGAAUCUGCGAAUUCUGCUGCAUAUCUC | 1.15
25 | UAACAGGGGGCCUCAGCAGAAGCGUUCACGUCGCAGCCCCUGUCAGUUUCUGGUGAAUCUGCGAGUUCUGCUGUAUAUCCC | 0.05
26 | UAACAGGGGGCCUCAGCAGAAGCGUUCACGUCGCAGCCCCUGUCAGAUUCUGGUGGUUCUGCGGAUUCCGCUGUAUAUCUC | 0.1
27 | UAACAGGGGGCCUCAGCAGAAGCGUUCACGUCGCAGCCCCUGUCAGAUUCUGGUGGAUCAGCGAAUUCUGCUGUAUAUCUC | 0.6
28 | UAACAGGGGGCCUCAGCAGAAGCGUUCACGUCGCAGCCCCUGUCAGAUUCUGGUGGAUCUGCGAAUUCCGCUGUAUAUCUC | 0.64
29 | UAACAGGGGGCCUCAGCAGAAGCGUUCACGUCGCAGCCCCUGUCAGAUUCUGGUGGAUCUGCGAAUUCUGCGGUAUAUCUC | 0.89
30 | UAACAGGGGGCCUCAGCAGAAGCGUUCACGUCGCAGCCCCUGUCAGAUUCUGGUGGAUCUGCGAAUUCUGCUGUAUACCUC | 0.97
31 | UAACAGGGGGCCUCAGCAGAAGCGUUCACGUCGCAGCCCCUGUCAGAUUCUGGUGACUCAACGAAUUCUGCCGUAUAUCUC | 0.09
32 | UAACAGGGGGCCUCAGCAGAAGCGUUCACGUCGCAGCCCCUGUCAGAUUCUGGUGAGUCUGCGGACUCUGCUGUAUUUCUC | 0.22
33 | UAACAGGGGGCCUCAGCAGAAGCGUUCACGUCGCAGCCCCUGUCAGAUUCUGGUGAGUCUGCGUAUUCUGCUGUAUACCUC | 0.26
34 | UAACAGGGGGCCUCAGCAGAAGCGUUCACGUCGCAGCCCCUGUCAGAUUCUGGUGAGUCUGCGAAUUCUGCUGUACAUCUC | 1.08
